In a compilation of properties of binary mixtures (doi:10.1021/je1011289):
Some of these densities may be calculated back from excess volumes.

Assay: xn = mol fraction of the nth substance listed
Details: 101 kPa

CC[n+]1ccn(C)c1.N#C[S-] + O
mass density [kg/m3]
Details | x2 = 0.2 | x2 = 0.3 | x2 = 0.4 | x2 = 0.5 | x2 = 0.6 | x2 = 0.7 | x2 = 0.8
298.15 K | 1111.2 | 1110.4 | – | 1104.2 | 1099.7 | 1089.3 | 1075.8
303.15 K | 1108.1 | 1107.4 | 1103.5 | 1101 | 1096.6 | – | 1072.5
308.15 K | – | – | – | 1097.8 | 1093.4 | 1082.8 | 1069.3
313.15 K | – | 1101.2 | 1097.2 | – | 1090.2 | – | 1065.9
318.15 K | – | 1098.2 | 1094.1 | 1091.5 | 1087 | 1076.3 | 1062.6
323.15 K | – | 1095.1 | – | 1088.3 | 1083.8 | 1073.1 | 1059.1

CC[n+]1ccn(C)c1.N#C[S-] + c1ccncc1
mass density [kg/m3]
Details | x2 = 0.2 | x2 = 0.3 | x2 = 0.4 | x2 = 0.5 | x2 = 0.6 | x2 = 0.7 | x2 = 0.8
298.15 K | 1102.1 | – | 1092.8 | 1082.3 | 1072.6 | 1060.1 | 1045.2
303.15 K | 1098.9 | 1093.3 | 1089.5 | 1078.8 | – | 1056.3 | –
308.15 K | 1095.7 | – | 1086.2 | 1075.4 | 1065.5 | – | 1037.2
313.15 K | 1092.5 | – | 1083 | – | 1062 | 1048.8 | 1033.2
318.15 K | 1089.4 | 1083.6 | 1079.7 | 1068.6 | – | – | –
323.15 K | 1086.2 | 1080.4 | 1076.5 | 1065.3 | 1055 | – | 1025.3

CC[n+]1ccn(C)c1.N#C[S-] + c1ccsc1
mass density [kg/m3]
Details | x2 = 0.2 | x2 = 0.3 | x2 = 0.4 | x2 = 0.5 | x2 = 0.6 | x2 = 0.7 | x2 = 0.8
298.15 K | – | 1115.7 | 1115 | – | 1112.2 | 1106.1 | 1110.7
303.15 K | 1113.3 | – | 1111.9 | – | 1108.5 | 1102.4 | 1106.7
308.15 K | 1110.1 | 1109 | – | – | 1104.9 | 1098.6 | –
313.15 K | 1106.9 | 1105.6 | 1105.5 | 1103.1 | 1101.2 | 1094.7 | –
318.15 K | 1103.7 | 1102.3 | – | 1099.3 | 1097.6 | 1090.9 | 1093.5
323.15 K | 1100.5 | – | 1099.2 | 1095.5 | 1094 | 1087 | 1088.9
